For experiment [1], the target named is T1, AtHYL1C (C-terminal fragment of AtHYL1, 171-419 a.a.), yeast two-hybrid fusion (Arabidopsis thaliana) (UniProt O04492).
T1 sequence: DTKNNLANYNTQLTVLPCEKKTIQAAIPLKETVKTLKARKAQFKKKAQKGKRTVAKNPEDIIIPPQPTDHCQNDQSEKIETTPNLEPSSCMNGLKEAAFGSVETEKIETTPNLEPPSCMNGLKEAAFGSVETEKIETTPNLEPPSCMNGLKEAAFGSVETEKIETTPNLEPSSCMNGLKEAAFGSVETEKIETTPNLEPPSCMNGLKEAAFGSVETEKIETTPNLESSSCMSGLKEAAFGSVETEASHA
Description: two-hybrid; yeast two-hybrid with pGADT7 (AD) and pGBKT7 (BD) fusions; yeast grown on respective medium at 28 °C for 3 days.

The target of experiment [2] is T2, AtHYL1FL (hyponastic leaves 1, full length), yeast two-hybrid fusion (Arabidopsis thaliana) (UniProt O04492).
T2 sequence: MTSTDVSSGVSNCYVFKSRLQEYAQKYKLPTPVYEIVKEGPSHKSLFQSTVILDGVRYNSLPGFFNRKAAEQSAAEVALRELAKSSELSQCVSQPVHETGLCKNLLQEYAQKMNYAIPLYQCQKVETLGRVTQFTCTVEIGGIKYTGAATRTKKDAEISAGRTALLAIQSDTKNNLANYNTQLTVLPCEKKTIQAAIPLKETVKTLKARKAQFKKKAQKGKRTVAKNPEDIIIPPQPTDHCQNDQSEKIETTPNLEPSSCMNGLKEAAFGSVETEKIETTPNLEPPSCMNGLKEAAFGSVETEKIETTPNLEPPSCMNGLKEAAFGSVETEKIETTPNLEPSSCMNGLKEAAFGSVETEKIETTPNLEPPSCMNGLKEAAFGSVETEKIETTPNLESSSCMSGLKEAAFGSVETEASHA
The description is as above.

The target of experiment [3] is T3, AtHYL1N (N-terminal fragment of AtHYL1, 1-170 a.a.), yeast two-hybrid fusion (Arabidopsis thaliana) (UniProt O04492).
T3 sequence: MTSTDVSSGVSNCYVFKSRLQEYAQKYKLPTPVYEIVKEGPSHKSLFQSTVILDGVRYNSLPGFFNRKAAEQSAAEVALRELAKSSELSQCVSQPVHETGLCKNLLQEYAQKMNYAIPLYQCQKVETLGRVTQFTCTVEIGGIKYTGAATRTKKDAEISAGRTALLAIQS
The experiment is described as above.

Experiment [4] deals with T4, AtHYL1, BiFC fusion used with AtMPK3 (Arabidopsis thaliana) (UniProt O04492).
T4 sequence: T2 sequence
Description: split reporter; BiFC with halves of YFP; transient co-expression by agro-infiltration in N. benthamiana (tobacco) leaves; confocal microscopy.

The target in experiment [5] is T5, AtHYL1-nYFP / AtHYL1-cYFP (full-length AtHYL1 with a YFP half at the C-terminal) (Arabidopsis thaliana), O04492.
T5 chain: T2 sequence
The experiment is described as above. Particulars: remark: other sources report otherwise.

The target of experiment [6] is T6, nYFP-AtHYL1 / cYFP-AtHYL1 (full-length AtHYL1 with a YFP half at the N-terminal) (Arabidopsis thaliana), O04492.
T6 chain: T2 sequence
The description is as above. Particulars: remark: other sources report otherwise.

The source of these data is paper PMC8998556.

No constants are given. Whether binding was seen depends on the method and setting. For some assays here: Binding seen in cells or lysates may run through a third protein. Some binding calls cover weakened binding; strength is not graded here. Tags and fused reporters may be left off the sequences shown.

B1: AtMPK3, yeast two-hybrid fusion (enzyme, UniProt Q39023 1-370)
chain: MNTGGGQYTDFPAVETHGGQFISYDIFGSLFEITSKYRPPIIPIGRGAYGIVCSVLDTETNELVAMKKIANAFDNHMDAKRTLREIKLLRHLDHENIIAIRDVVPPPLRRQFSDVYISTELMDTDLHQIIRSNQSLSEEHCQYFLYQLLRGLKYIHSANIIHRDLKPSNLLLNANCDLKICDFGLARPTSENDFMTEYVVTRWYRAPELLLNSSDYTAAIDVWSVGCIFMELMNRKPLFPGKDHVHQMRLLTELLGTPTESDLGFTHNEDAKRYIRQLPNFPRQPLAKLFSHVNPMAIDLVDRMLTFDPNRRITVEQALNHQYLAKLHDPNDEPICQKPFSFEFEQQPLDEEQIKEMIYQEAIALNPTYG
Turning to B1, the binding result in experiment [1], in experiment [2] and in experiment [3] was “binds” in each case.

B2: AtMPK3, BiFC fusion (enzyme, UniProt Q39023 1-370)
chain: B1 chain
For the molecule B2, the binding result in experiment [4] is listed as “binds”.

B3: AtHYL1-nYFP / AtHYL1-cYFP (full-length AtHYL1 with a YFP half at the C-terminal), O04492 1-419 (protein)
chain: T2 sequence
Take B3: in experiment [5], the binding result was “binds”.

B4: nYFP-AtHYL1 / cYFP-AtHYL1 (full-length AtHYL1 with a YFP half at the N-terminal), O04492 1-419 (protein)
chain: T2 sequence
Turning to B4, in experiment [6], the binding entry is reported as “binds”.

B5: AtSE (serrate), yeast two-hybrid fusion (protein, UniProt Q9ZVD0 1-720)
chain: MADVNLPPSDSVDNRLPEKSTSSSPPPPPPSSSLPQQEQEQDQQQLPLRRERDSRERRDERDIERPPPNRRERDRSPLPPPRRDYKRRPSLSPPPPYRDRRHSPPQRRSPPQKRYRRDDNGYDGRRGSPRGGYGPPDRRFGYDHGGGYDREMGGRPGYGDERPHGRFMGRYQDWEGGRGGYGDASNSGNPQRDGLMSYKQFIQELEDDILPSEAERRYQEYKSEYITTQKRAFFNTHKEEDWLKNKYHPTNLLSVIERRNDLAQKVAKDFLLDLQSGTLDLGPAVTALNKSGRTSEPNSEDEAAGVGKRKRHGMGGAKENELLSAAPKAPSFTSDPKRILTDVEQTQALVRKLDSEKKIEENVLQGSETEKSGREKLHSGSTGPVVIIRGLTSVKGLEGVELLDTLVTYLWRVHGLDYYGKVETNEAKGLRHVRAEGKVSDAKGDENESKFDSHWQERLKGQDPLEVMAAKEKIDAAATEALDPHVRKIRDEKYGWKYGCGAKGCTKLFHAAEFVYKHLKLKHTELVTELTTKVREELYFQNYMNDPNAPGGQPATQQSGPRDRPIRRKPSMENRLRDDRGGRRERDGRANGNDRNDRSEDQQRGDNDGGNPGEVGYDAFGGQGGVHVPPFLSDINPPPMLMPVPGAGPLGPFVPAPPEVAMQMFRDPSGPNPPFEGSGRGGPAPFLLSPAFRQDPRRLRSYQDLDAPEEEVTVIDYRSL
B5: the binding result in experiment [1] is “no binding”; in experiment [3] it was “binds”.
